Data reported in the supplement of paper PMC10126150.
Sequences with one replicate were seen in a single cluster, so their values are uncertain.

Test system: ATP
Assay: switch fluorescence ratio, 500 uM ATP over buffer (Cy3 cluster intensity, sum of 5 cycles each) (fold (ratio)); higher = stronger signal-on switching upon ATP binding; sequences stand for … in TCGTCGGCAGCGTCAGATGTGTATAAGAGACAGTTTTTTTTTTTTTTTTTTTTTTTTT…TC
Conditions: aptamer strand: ATP DNA aptamer (quencher-CACCTGGGGGAGTATTGCGGAGGAAGG + anchor), 100 nM annealed; ATP concentration: 500 uM; one replicate
Outline: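 Imaging in selection buffer was followed by imaging after 15 min with 500 uM ATP at 22 °C, for Cy3-labelled switching-strand clusters annealed to 100 nM quencher-labelled ATP aptamer on a modified Illumina MiSeq flow-cell. Five of these buffer/ATP cycles ran, separated by NaOH stripping and re-annealing. The fluorescence ratio per cluster is summed target-cycle over summed buffer-cycle Cy3 intensity, averaged per switch-domain sequence; clusters outside 100-1000 RFU were removed.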
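Further: ATP exposure 15 min at 22 °C before imaging.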

Sequence	switch fluorescence ratio
CAGTACTGTA	1
TTGACCGTGT	0.995
CATCGTGATC	1.51
TGAAATACCA	1.01
CGTGGTAGGT	1.04
ACACTAAGGC	1.07
CTGGAAGGAT	0.996
CTCTTCGATG	1.01
AAACGGGGTG	1
ACGGTCAACG	0.963
CTTGTTTGTA	0.998
GATTTTGGAA	0.975
TCTCTTGGTT	1.03
TTCTAGAGGG	0.993
GAGGTCGGGA	0.995
TTGTTGAACT	1.01
CGGAATCGGA	0.995
TAGGCGTTGA	1.1
GCTTATGCAA	1.02
GCCGGCTGAA	0.981
CGAAATTTCC	1.07
GGCCAAGTAA	1.11
GAAACTGCCG	1.07
GTCGTGAGA	1.03
CTAGTAGAC	1.03
CACATCTGAA	1.02

Sequence	switch fluorescence ratio
CAGTAGATTT	0.936
TAGACCTACT	1.18
TAATGCAATG	0.979
CCAGCATCCG	1.2
ATTCAAATA	0.999
GCCTATCGAC	1.03
GCGCAAGCTT	1.03
TTTACATGGG	0.972
CCTGATAGGA	1.01
TATTAGGCTG	1.07
TCTGACGTCC	1.08
GCGGTTTACT	0.955
TAAAATCGAG	0.956
TATTCGTACA	0.974
CTAGAGAATT	1.01
ATTATGGGCT	0.988
TAATTAGGA	1.01
AAATTATAG	1.01
TCAAGCAGGC	1.27
AAAATTCTTC	1.05
GAAAGCATGG	1.03
CGTGCATAAG	0.988
ATCCTTTATT	0.992
AATTCTGCTC	0.974
ACCCTTTTGA	1.04
GAGCGCTGGA	1.12

Sequence	switch fluorescence ratio
CGGCAAATTA	1.04
CAGGAGGCGT	0.971
TGAGTGAAGG	0.918
ATGCATTCA	1.06
TGGGCGCGAT	0.979
ATCTCTATGC	0.963
CTGGTTAGCA	0.992
GAGTACCGTT	0.975
AGATTCTTCT	0.926
TTGCGAGGCT	1.04
AAAAGAGGTA	1.08
ACTGATCTGC	1.06
ACTTGTCTAG	1.03
CCGGGAGGT	0.985
GGAGTACATA	1.01
GTTCCGATAA	1.15
CGTGTTGTGC	1.03
TCAGTACTCT	1.03
TTTGGTGTT	0.973
ATAATGAACG	1.05
GGCAGCAGGG	1.03
GCTGTTATAT	0.97
AGCGGTTGTC	0.999
TTAGACTTCT	1
ACTTGTGTTC	0.957
CGGGCGTGCT	0.978

Sequence	switch fluorescence ratio
GTGAACGGGG	1.03
TTCTGTACTC	1.46
CAGTTTGAGG	0.942
AAGCACATTC	1.58
GATAAGTGTG	0.975
TTGCCTCCAA	1.13
TGAGATGGGC	0.991
ATTCTGTTT	0.989
TTCTTCAACA	1.01
AGTTCGGCTC	0.972
GCTGTCGGGG	0.977
GTGATCTACG	1.02
GACATAGCAC	3.19
GGGACTATAT	1.07
GCCTCACTCA	1.07
AGGATGAGCC	1.01
TTGGTAACCA	1.03
GACACCTACG	1.36
TATCAGTAGC	0.982
GTTTGGCGAA	1.02
TTTTGTATGT	1.01
TGAGGGTGGC	0.946
GCACGGGCGC	1.07
GTACACGGGG	0.953
GCTGAGGCTC	1.03
AAGGAGTACC	0.992

Sequence	switch fluorescence ratio
TCATTTGCA	1.06
TTGTCTCTGG	0.973
ATTTATGAC	1.06
CTCATTTAAT	1.03
CTCTGCACGG	3.96
AGTTGT	1.04
CCTGTTATTT	1.05
GACTCCATGG	1.12
ACTTAAGTGC	1
TGGCGTCACA	0.996
AAGCATCCCA	1.01
AGGGGATGGA	1.04
AGACCAGCCG	0.986
CGCATGGAA	1.01
CAAAGGTCAC	0.994
GCTGCTGCGC	0.986
CCAAATTATG	1.02
GAGTAGCGGG	0.981
ATCGCCGCGG	0.981
GATGGAGGAC	1.02
CAGACATTG	0.976
GCGATTGCGA	0.964
ATTGGCGGTC	1.04
CATCCCTACT	2.94
GAGGTTCAAT	0.969
ACGGGGTCTG	0.987

Sequence	switch fluorescence ratio
TATTCACAAT	1.02
AGGGTCTTAT	1.01
AGAGGAGGTT	0.967
AGATTATAAA	1.01
GACAGCTTGA	1
ACTAGACTCG	0.992
TTTATTCGT	0.979
TGATACTTGC	1.11
GTGTGCGAA	1
AGTGGGTGGT	0.984
CTGGGTAGGT	0.99
AGGGTCATAA	0.988
GGTCTAGTAC	0.996
GTGGCAGTTC	1.08
CAGGTCGGGC	1.01
CGGTGCACGT	0.956
TCTACTGCAC	1.85
GCGGCCCCTT	1.01
TTATGGGACC	1.04
ATTTTGCAG	1
TGAGGTTGGG	1.01
GGTGAATTGC	0.974
CAGGATCGG	0.978
AGTCACTTAC	1.37
